From PubChem BioAssay AID485294 (National Center for Advancing Translational Sciences (NCATS), 2010)
Hit rate of the full screen: of about 370,000 compounds, about 150 (0.041%) were called active. The inconclusive results got no clear call from the source; some entries with a clear call stand among them for comparison. Calls come from the whole dose curve; as a rule, active = well fitted inhibition curve with a large enough effect; inconclusive = small, poorly fitted or top-dose-only effect; inactive = flat fitted curve, though single readings scatter. Potencies of inconclusive entries are left out as doubtful fits.

Molecular target: Beta-lactamase (Escherichia coli (strain K12)) (UniProt P00811)
Sequence of UniProt P00811 (P00811 whole entry, looked up): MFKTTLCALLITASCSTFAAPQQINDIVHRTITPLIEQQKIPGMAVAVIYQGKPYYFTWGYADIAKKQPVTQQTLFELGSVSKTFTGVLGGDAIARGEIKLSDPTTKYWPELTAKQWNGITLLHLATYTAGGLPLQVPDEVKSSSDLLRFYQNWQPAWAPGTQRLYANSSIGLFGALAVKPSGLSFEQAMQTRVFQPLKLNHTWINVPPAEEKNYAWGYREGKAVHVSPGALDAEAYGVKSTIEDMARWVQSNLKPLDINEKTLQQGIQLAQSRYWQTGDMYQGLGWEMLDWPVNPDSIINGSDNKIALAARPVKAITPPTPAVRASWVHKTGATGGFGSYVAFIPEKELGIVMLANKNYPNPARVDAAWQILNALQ
Experiment: qHTS Inhibitors of AmpC Beta-Lactamase (assay with detergent); note: nearly all actives have a fitted effect of over 25% in size;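 for activity change, negative = inhibition: 0% = no-compound wells and -100% = no-enzyme wells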
Details: AmpC hydrolysis of nitrocefin, absorbance 480 nm, 0.01% Triton; activity change, negative = inhibition: at 114 µM (top of the series)
In short: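 AmpC (5.3 nM in the dispensed reagent) in 20 mM phosphate pH 7.0 with 0.01% (detergent screen) or 0.0001% Triton X-100 was preincubated with compounds for 15 min at room temperature. Nitrocefin was then added from an 800 uM solution, and hydrolysis was followed at 480 nm.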
Potency is the fitted concentration of half-maximal effect; tags give direction and shape of the fitted curve.

SMILES | Potency | activity change, negative = inhibition
O=C(Nc1cccc(C(F)(F)F)c1)c1cc(-c2cccs2)on1 | inconclusive [inhibitor, full curve, poor fit] | –
CC(Oc1ccc(Cl)cc1Cl)C(=O)NCc1ccncc1 (stereo not drawn) | inconclusive [inhibitor, full curve] | –
Nc1nc2ccccc2n1CCOc1ccc(Cl)cc1 | inconclusive [inhibitor, full curve] | –
COC(=O)c1ccccc1NC(=O)C1CCCN(S(C)(=O)=O)C1 (stereo not drawn) | inconclusive [inhibitor, full curve, poor fit] | –
COc1ccccc1CC(NC(C)=O)C(=O)NC1CCN(C(=O)c2ccc(C)cc2)CC1 (stereo not drawn) | inconclusive [inhibitor, full curve, poor fit] | –
C#CCOCCOCCOCCNc1nc(N2CCN(C(=O)CCCCCCCCCCNC(=O)Cn3cc(C[C@@H](C)O)nn3)CC2)nc(N2CCN(C(=O)CCCCCCCCCCNC(=O)[C@@H](CCSC)n3cc(CCO)nn3)CC2)n1 | inconclusive [inhibitor, partial curve, poor fit] | –
CCOP(=O)(Cc1ccccc1)OCC | – | inactive: -5.91%
O=C(Nc1cccc(F)c1)C1CCCCC1 | inconclusive [inhibitor, full curve] | –
COc1ccc(NC(=O)Cn2ncn3nc(-c4ccc(OC)cc4)cc3c2=O)cc1 | inconclusive [inhibitor, partial curve, poor fit] | –
CC(C)c1ccc(NC(=S)N2CCCC2)cc1 | inconclusive [inhibitor, full curve] | –
O=C(NCc1nc2ccccc2[nH]1)c1cccc(S(=O)(=O)N2CCCC2)c1 | inconclusive [inhibitor, partial curve] | –
COc1cccc(NC(=O)CN(C)C(=O)Cc2ccc3c(c2)OCCO3)c1 | inconclusive [inhibitor, partial curve] | –
COc1ccc(OC)c(NC(=O)CN2C(=O)C3(OCCCO3)c3ccccc32)c1 | – | inactive: -10.7%
CCOC(=O)c1sc2nc(CC(=O)OC)nc(NCC(=O)OC)c2c1C | – | inactive: 0.381%
COc1cccc2c1C(CO)N1C(C#N)C3CC(C(=O)O)C(C1C2)N3C (stereo not drawn) | – | inactive: 6.54%
COc1ccc(C(CCNCc2ccccc2)c2ccc(F)cc2)cc1 (stereo not drawn) | – | inactive: -16.2%
COc1cc(C(=O)N2CCN(c3cc(Cl)ccc3Cl)CC2)cc(OC)c1OC | inconclusive [inhibitor, full curve, poor fit] | –
CCN(CC)CCCn1c(=S)[nH]c2cc(OC)c(OC)cc2c1=O | inconclusive [inhibitor, full curve, poor fit] | –
